Measured values from the supplement of paper PMC4967469.
By IC50 is meant the dose at which the fit gives 50% viability; fits outside the tested doses are given as limits. AUC is the area under the same curve over the 256-fold range up to the top dose, as a fraction; the more sensitive the line, the further below 1.

Compound: N#CC[C@H](C1CCCC1)n1cc(-c2ncnc3[nH]ccc23)cn1 [Ruxolitinib]
Test: Viability of human cancer cell lines after 72 h of drug (GDSC screen)
Description: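 Human cancer cell lines in 384-well plates, medium with 10% serum, drug for 72 h over a 256-fold dose range (nine 2-fold or five 4-fold steps up to the top dose). Adherent lines were fixed and stained with the nucleic acid dye Syto60, suspension lines read with resazurin; signal relative to control wells, capped at 0 and 100%. One two-parameter sigmoid per drug and line, fitted in a mixed model over all curves with the slope shared within a line.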

Cell Line | AUC | IC50
P31-FUJ (acute myeloid leukaemia, suspension, top dose 5.24 µM) | 0.996 | > 5.24 µM
P32-ISH (Burkitt lymphoma, suspension, top dose 5.24 µM) | 0.99 | > 5.24 µM
PA-1 (ovary, adherent, top dose 5.24 µM) | 0.993 | > 5.24 µM
PA-TU-8902 (pancreas, adherent, top dose 5.24 µM) | 0.982 | > 5.24 µM
PA-TU-8988T (pancreas, adherent, top dose 5.24 µM) | 0.987 | > 5.24 µM
PANC-02-03 (pancreas, adherent, top dose 5.24 µM) | 0.983 | > 5.24 µM
PANC-03-27 (pancreas, adherent, top dose 5.24 µM) | 0.989 | > 5.24 µM
PANC-04-03 (pancreas, adherent, top dose 5.24 µM) | 0.976 | > 5.24 µM
PANC-08-13 (pancreas, adherent, top dose 5.24 µM) | 0.982 | > 5.24 µM
PANC-10-05 (pancreas, adherent, top dose 5.24 µM) | 0.981 | > 5.24 µM
PC-3 [JPC-3] (lung adenocarcinoma, adherent, top dose 5.24 µM) | 0.951 | > 5.24 µM
PC-14 (lung adenocarcinoma, adherent, top dose 5.24 µM) | 0.974 | > 5.24 µM
PCI-4B (head and neck, adherent, top dose 5.24 µM) | 0.987 | > 5.24 µM
PCI-6A (head and neck, adherent, top dose 5.24 µM) | 0.985 | > 5.24 µM
PCI-15A (head and neck, adherent, top dose 5.24 µM) | 0.985 | > 5.24 µM
PCI-30 (head and neck, adherent, top dose 5.24 µM) | 0.985 | > 5.24 µM
PCI-38 (head and neck, adherent, top dose 5.24 µM) | 0.985 | > 5.24 µM
PE/CA-PJ15 (head and neck, adherent, top dose 5.24 µM) | 0.983 | > 5.24 µM
PEO1 (ovary, adherent, top dose 5.24 µM) | 0.984 | > 5.24 µM
PF-382 (T-cell lymphoblastic leukaemia, suspension, top dose 5.24 µM) | 0.972 | > 5.24 µM
PFSK-1 (medulloblastoma, adherent, top dose 5.24 µM) | 0.985 | > 5.24 µM
PL4 (pancreas, adherent, top dose 5.24 µM) | 0.987 | > 5.24 µM
PL18 (pancreas, adherent, top dose 5.24 µM) | 0.988 | > 5.24 µM
PL-21 (acute myeloid leukaemia, suspension, top dose 5.24 µM) | 0.933 | > 5.24 µM
PSN1 (pancreas, adherent, top dose 5.24 µM) | 0.991 | > 5.24 µM
QGP-1 (pancreas, adherent, top dose 5.24 µM) | 0.975 | > 5.24 µM
QIMR-WIL (acute myeloid leukaemia, suspension, top dose 5.24 µM) | 0.974 | > 5.24 µM

Cell Line | AUC | IC50
RC-K8 (B-cell lymphoma, suspension, top dose 5.24 µM) | 0.993 | > 5.24 µM
RCC10RGB (kidney, adherent, top dose 1.024 µM) | 0.972 | > 1.02 µM
RCC-AB (kidney, adherent, top dose 5.24 µM) | 0.977 | > 5.24 µM
RCC-ER (kidney, adherent, top dose 5.24 µM) | 0.986 | > 5.24 µM
RCC-FG2 (kidney, adherent, top dose 5.24 µM) | 0.979 | > 5.24 µM
RCC-JF (kidney, adherent, top dose 5.24 µM) | 0.979 | > 5.24 µM
RCC-JW (kidney, adherent, top dose 5.24 µM) | 0.986 | > 5.24 µM
RCC-MF (kidney, adherent, top dose 5.24 µM) | 0.972 | > 5.24 µM
RCM-1 (large intestine, adherent, top dose 5.24 µM) | 0.985 | > 5.24 µM
RD (rhabdomyosarcoma, adherent, top dose 5.24 µM) | 0.985 | > 5.24 µM
REH (B-cell leukaemia, suspension, top dose 5.24 µM) | 0.983 | > 5.24 µM
RERF-GC-1B (stomach, adherent, top dose 5.24 µM) | 0.983 | > 5.24 µM
RERF-LC-KJ (lung adenocarcinoma, adherent, top dose 5.24 µM) | 0.986 | > 5.24 µM
RERF-LC-MS (lung adenocarcinoma, adherent, top dose 5.24 µM) | 0.984 | > 5.24 µM
RERF-LC-Sq1 (lung squamous cell carcinoma, adherent, top dose 5.24 µM) | 0.967 | > 5.24 µM
RF-48 (stomach, adherent, top dose 5.24 µM) | 0.983 | > 5.24 µM
RH-1 (rhabdomyosarcoma, adherent, top dose 5.24 µM) | 0.992 | > 5.24 µM
RH-18 (rhabdomyosarcoma, adherent, top dose 5.24 µM) | 0.982 | > 5.24 µM
RH-41 (rhabdomyosarcoma, adherent, top dose 5.24 µM) | 0.989 | > 5.24 µM
RKN (ovary, adherent, top dose 5.24 µM) | 0.984 | > 5.24 µM
RKO (large intestine, adherent, top dose 5.24 µM) | 0.988 | > 5.24 µM
RL95-2 (endometrium, adherent, top dose 5.24 µM) | 0.987 | > 5.24 µM
RL (B-cell lymphoma, suspension, top dose 5.24 µM) | 0.989 | > 5.24 µM
RMG-I (ovary, adherent, top dose 5.24 µM) | 0.974 | > 5.24 µM
RO82-W-1 (thyroid, adherent, top dose 5.24 µM) | 0.983 | > 5.24 µM
ROS-50 (B-cell leukaemia, suspension, top dose 5.24 µM) | 0.972 | > 5.24 µM
RPMI-2650 (head and neck, adherent, top dose 5.24 µM) | 0.984 | > 5.24 µM

Cell Line | AUC | IC50
RPMI-6666 (Hodgkin lymphoma, suspension, top dose 5.24 µM) | 0.974 | > 5.24 µM
RPMI-8226 (myeloma, suspension, top dose 5.24 µM) | 0.99 | > 5.24 µM
RPMI-8402 (T-cell lymphoblastic leukaemia, suspension, top dose 5.24 µM) | 0.987 | > 5.24 µM
RPMI-8866 (chronic myeloid leukaemia, suspension, top dose 5.24 µM) | 0.987 | > 5.24 µM
RS4-11 (leukaemia, suspension, top dose 5.24 µM) | 0.988 | > 5.24 µM
RT4 (bladder, adherent, top dose 5.24 µM) | 0.987 | > 5.24 µM
RT-112 (bladder, adherent, top dose 5.24 µM) | 0.984 | > 5.24 µM
RXF393 (kidney, adherent, top dose 5.24 µM) | 0.977 | > 5.24 µM
Raji (Burkitt lymphoma, suspension, top dose 5.24 µM) | 0.99 | > 5.24 µM
Ramos-2G6-4C10 (Burkitt lymphoma, suspension, top dose 5.24 µM) | 0.99 | > 5.24 µM
SAS (head and neck, adherent, top dose 5.24 µM) | 0.971 | > 5.24 µM
SAT (head and neck, adherent, top dose 5.24 µM) | 0.973 | > 5.24 µM
SBC-1 (small cell lung carcinoma, suspension, top dose 5.24 µM) | 0.989 | > 5.24 µM
SBC-3 (small cell lung carcinoma, adherent, top dose 5.24 µM) | 0.967 | > 5.24 µM
SBC-5 (small cell lung carcinoma, adherent, top dose 5.24 µM) | 0.992 | > 5.24 µM
SCC90 (head and neck, adherent, top dose 5.24 µM) | 0.925 | > 5.24 µM
SCC-3 (B-cell lymphoma, suspension, top dose 5.24 µM) | 0.997 | > 5.24 µM
SCC-4 (head and neck, adherent, top dose 5.24 µM) | 0.984 | > 5.24 µM
SCC-9 (head and neck, adherent, top dose 5.24 µM) | 0.981 | > 5.24 µM
SCC-15 (head and neck, adherent, top dose 5.24 µM) | 0.968 | > 5.24 µM
SCC-25 (head and neck, adherent, top dose 5.24 µM) | 0.984 | > 5.24 µM
SCH (stomach, adherent, top dose 5.24 µM) | 0.988 | > 5.24 µM
SF126 (glioma, adherent, top dose 5.24 µM) | 0.986 | > 5.24 µM
SF268 (glioma, adherent, top dose 5.24 µM) | 0.971 | > 5.24 µM
SF295 (glioma, adherent, top dose 5.24 µM) | 0.985 | > 5.24 µM
SF539 (glioma, adherent, top dose 5.24 µM) | 0.99 | > 5.24 µM
